The other results are listed elsewhere or left out. Most values come without repeats; read them as rough.
Each molecule was assayed on COLO792 (assay: cell count relative to DMSO control; melanoma cells; higher = more viable cells). Conditions: library dose: standard library concentration; 72 h.
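Note: cells treated in 1,536-well plates, then fixed and DAPI-stained, with nuclei counted from automated high-throughput microscope images.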

Row | Structure (SMILES) | cell count [%]
1 | Cn1c(Nc2ccc(C(F)(F)F)cc2)nc2cc(Oc3ccnc(-c4ncc(C(F)(F)F)[nH]4)c3)ccc21 + CN(NC(=O)CC(=O)NN(C)C(=S)c1ccccc1)C(=S)c1ccccc1 [STA4783] (first compound 0.4 µM, partner dose 0.03 µM) | 9.25
2 | O=C(CCCCCCC(=O)Nc1ccccc1)NO [vorinostat] + CC1(C)NC(=O)N(c2ccc([N+](=O)[O-])c(C(F)(F)F)c2)C1=O [nilutamide] (first compound 0.4 µM, partner dose 5 µM) | 92.8
3 | COCC[n+]1c2c(n(Cc3cnccn3)c1C)C(=O)c1ccccc1C2=O + CC(C)(C)c1cnc(CSc2cnc(NC(=O)C3CCNCC3)s2)o1 [SNS-032] (first compound 0.002 µM, partner dose 0.05 µM) | 63.8
4 | C#Cc1cccc(Nc2ncnc3cc(OCCOC)c(OCCOC)cc23)c1 [erlotinib] + CO[C@@H]1[C@H](N(C)C(=O)c2ccccc2)C[C@H]2O[C@]1(C)n1c3ccccc3c3c4c(c5c6ccccc6n2c5c31)C(=O)NC4 [Midostaurin] (first compound 4 µM, partner dose 0.4 µM) | 31.8
5 | Clc1ccc(Nc2nnc(Cc3ccncc3)c3ccccc23)cc1 [vatalanib] + O=C(Nc1cccc(Cl)c1)Nc1ncc(CCNc2ncnc3ccsc23)s1 [SNS314] (first compound 10 µM, partner dose 0.004 µM) | 45.2
6 | COCC[n+]1c2c(n(Cc3cnccn3)c1C)C(=O)c1ccccc1C2=O + C[C@@H]1CCN(C(=O)CC#N)C[C@@H]1N(C)c1ncnc2[nH]ccc12 [CP690550] (first compound 0.002 µM, partner dose 5 µM) | 73
